In the supplement of paper PMC10126150:
Values marked as one replicate rest on one cluster of the flow cell; about a third of the high ones do not repeat.

System: ATP
Experiment: switch fluorescence ratio, 500 uM ATP over buffer (Cy3 cluster intensity, sum of 5 cycles each) (fold (ratio)); higher = stronger signal-on switching upon ATP binding; sequences stand for … in TCGTCGGCAGCGTCAGATGTGTATAAGAGACAGTTTTTTTTTTTTTTTTTTTTTTTTT…TC
Conditions: aptamer strand: ATP DNA aptamer (quencher-CACCTGGGGGAGTATTGCGGAGGAAGG + anchor), 100 nM annealed; ATP concentration: 500 uM; one replicate
Outline: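 Cy3-labelled switching-strand clusters on a modified Illumina MiSeq flow-cell were annealed to 100 nM quencher-labelled ATP aptamer and imaged first in selection buffer, then after 15 min with 500 uM ATP at 22 °C. NaOH stripping and re-annealing separated each of five buffer/ATP cycles, and clusters outside 100-1000 RFU were excluded. The fluorescence ratio sums target-cycle Cy3 intensity over buffer-cycle Cy3 intensity per cluster and averages it per switch-domain sequence.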
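Note: ATP exposure 15 min at 22 °C before imaging.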

TACCACTTCG was tested, and the switch fluorescence ratio was 1.07.

For TTCTATCTA, the switch fluorescence ratio was 0.986.

In the case of TAAAATGGTA, the switch fluorescence ratio is reported as 1.06.

ATGCTCGGCG was tested, and the switch fluorescence ratio was 1.03.

With AATCGTCGCT the switch fluorescence ratio was 0.973.

Sequence TAGGGGATGG has a switch fluorescence ratio of 0.998.

For AACGACTTA, the switch fluorescence ratio was 1.03.

GGACTGAGTA was tested, and the switch fluorescence ratio was 0.966.

TTCGGGACGT showed a switch fluorescence ratio of 1.02.

Sequence ACTCGGGTTA has a switch fluorescence ratio of 1.01.

In the case of CGGTAGCGCG, the switch fluorescence ratio is reported as 1.01.

GCAACTAAGC showed a switch fluorescence ratio of 0.943.

For GAAGAATGGC, the switch fluorescence ratio was 0.984.

For AGAAGTCTCT, the switch fluorescence ratio was 0.989.

Work on CATTCTTGGG yielded a switch fluorescence ratio of 0.986.

Work on CGGACTGTTG yielded a switch fluorescence ratio of 1.

In the case of TATATCTATC, the switch fluorescence ratio is reported as 0.99.

CTTGAACATT was tested, and the switch fluorescence ratio was 1.03.

AGTCACAGGT was tested, and the switch fluorescence ratio was 1.14.

AATGAGTTCG showed a switch fluorescence ratio of 1.

Work on CCTCAGTACG yielded a switch fluorescence ratio of 1.59.

Work on GTAATTCTCG yielded a switch fluorescence ratio of 1.07.

In the case of GGTCAAAATG, the switch fluorescence ratio is reported as 0.974.

In the case of CTGGGTCTAA, the switch fluorescence ratio is reported as 0.973.

In the case of GGATTAATA, the switch fluorescence ratio is reported as 1.

With GATCCCATCG the switch fluorescence ratio was 0.995.

Sequence GAACTATGTT has a switch fluorescence ratio of 1.

TCCGCCACGC was tested, and the switch fluorescence ratio was 2.

TGATCTAGGA gave a switch fluorescence ratio of 1.06.

In the case of AAAGAGAGCA, the switch fluorescence ratio is reported as 0.955.

CAGCTCTGGT gave a switch fluorescence ratio of 0.991.

With TCGTAAGGC the switch fluorescence ratio was 1.93.

For AACGTATGAT, the switch fluorescence ratio was 1.1.

GGGCTGCCCG was tested, and the switch fluorescence ratio was 1.

ACACGTCAGC gave a switch fluorescence ratio of 1.08.

TCACGGAGCT gave a switch fluorescence ratio of 1.49.

For CGGTACATCT, the switch fluorescence ratio was 1.01.

With GAATAATAGT the switch fluorescence ratio was 0.989.

AGACCAGAAT gave a switch fluorescence ratio of 0.984.

For AGTCCACTTT, the switch fluorescence ratio was 0.989.

ATAGATCCA showed a switch fluorescence ratio of 1.01.

With AGAAGTAGAT the switch fluorescence ratio was 0.999.

TTCGTAAATC gave a switch fluorescence ratio of 1.04.

CAGTAGTCA showed a switch fluorescence ratio of 1.46.

In the case of TGAGCAAAAT, the switch fluorescence ratio is reported as 1.02.

GTTGTAGAGA showed a switch fluorescence ratio of 1.02.

In the case of CGTTCTCGAA, the switch fluorescence ratio is reported as 0.986.

CGAGGTCAAT gave a switch fluorescence ratio of 2.74.

For CCACGCCACC, the switch fluorescence ratio was 1.83.

In the case of TCGTGTCTAT, the switch fluorescence ratio is reported as 1.05.

Sequence TTGGTACGA has a switch fluorescence ratio of 1.02.

For TGACGTTATT, the switch fluorescence ratio was 1.01.

Sequence AGGAAATGAG has a switch fluorescence ratio of 1.1.

Sequence TGTATTCAGC has a switch fluorescence ratio of 0.913.

Work on CCGGTTAAGA yielded a switch fluorescence ratio of 1.02.

GGCCTCCTGC was tested, and the switch fluorescence ratio was 1.05.

Sequence GAATAAAGAT has a switch fluorescence ratio of 0.989.

For CAAGAGATTC, the switch fluorescence ratio was 1.01.

For GCGGAGTGAG, the switch fluorescence ratio was 1.01.

Work on TTAGCGTCA yielded a switch fluorescence ratio of 0.985.

GCTGGTCTAA was tested, and the switch fluorescence ratio was 0.997.

GGGTTTCTAC gave a switch fluorescence ratio of 0.969.

GTTGGCCACG showed a switch fluorescence ratio of 0.979.

For GAAAGTGGCT, the switch fluorescence ratio was 0.981.

GAGGGTGAAA gave a switch fluorescence ratio of 1.21.

ATCCGTGCTC was tested, and the switch fluorescence ratio was 1.22.

Sequence ACATGTTCAA has a switch fluorescence ratio of 0.98.

Sequence TCTAATTCTA has a switch fluorescence ratio of 0.98.

Sequence CTTACAGGCT has a switch fluorescence ratio of 0.975.

ATCATTTTGA was tested, and the switch fluorescence ratio was 0.967.

In the case of GCCTCTCAGG, the switch fluorescence ratio is reported as 0.979.

AAATGGGCT gave a switch fluorescence ratio of 1.04.

TTAGGCGGTC showed a switch fluorescence ratio of 1.04.

With AGTCGAGTTT the switch fluorescence ratio was 0.977.

Work on TGCTTTAGCT yielded a switch fluorescence ratio of 0.997.

For TAATCTGACT, the switch fluorescence ratio was 1.07.

AAGTCCAACG gave a switch fluorescence ratio of 1.02.

GGAGGGGTAC was tested, and the switch fluorescence ratio was 1.13.

With ACGGCATAGT the switch fluorescence ratio was 1.1.

Work on GGGCCCTAAC yielded a switch fluorescence ratio of 1.04.

Work on GCCTTTGGAG yielded a switch fluorescence ratio of 0.984.

CATGTTTAAT gave a switch fluorescence ratio of 1.01.

With TGTTCCAG the switch fluorescence ratio was 0.996.

Work on AGCGAGTATT yielded a switch fluorescence ratio of 0.969.

ATTGTTCGGT gave a switch fluorescence ratio of 0.985.

Sequence TTGCATAAAT has a switch fluorescence ratio of 0.977.

CATGAAACTC gave a switch fluorescence ratio of 0.993.

With GGGAGACGGC the switch fluorescence ratio was 0.989.

TCGTTGTGC was tested, and the switch fluorescence ratio was 1.06.

GGTCACACCC was tested, and the switch fluorescence ratio was 1.09.

For TGACCTTTAT, the switch fluorescence ratio was 1.05.

ATTAATAGT showed a switch fluorescence ratio of 0.986.

TCGCCTCGGA showed a switch fluorescence ratio of 1.01.

In the case of GTTGTGACAT, the switch fluorescence ratio is reported as 1.02.

In the case of AGGGCGATC, the switch fluorescence ratio is reported as 1.05.

In the case of ACCCGTTTAA, the switch fluorescence ratio is reported as 1.06.

With GGATCCTGC the switch fluorescence ratio was 0.962.

Sequence TAGACTCGGC has a switch fluorescence ratio of 1.08.

CCCGACGGAT showed a switch fluorescence ratio of 1.25.

GGGAGGCGTT gave a switch fluorescence ratio of 0.966.

Work on TTAGCTCGG yielded a switch fluorescence ratio of 0.956.

For TGGGTATGCA, the switch fluorescence ratio was 0.976.

Sequence GGTGTTGGGA has a switch fluorescence ratio of 0.965.

For TAACTGTTCG, the switch fluorescence ratio was 0.987.

CTCTGCAGCT was tested, and the switch fluorescence ratio was 2.68.

GGAAAAGTAG was tested, and the switch fluorescence ratio was 0.992.

In the case of CATAGTGAA, the switch fluorescence ratio is reported as 1.03.

Sequence TGCTAGTAA has a switch fluorescence ratio of 1.01.

TTGCGTGGCG gave a switch fluorescence ratio of 1.03.

GTGGGTAAGC was tested, and the switch fluorescence ratio was 1.01.

With TCATTGGTCC the switch fluorescence ratio was 1.16.

Sequence CCGACTGTTT has a switch fluorescence ratio of 1.5.

Sequence CCTGTGCAG has a switch fluorescence ratio of 2.45.

CACCTACTTA showed a switch fluorescence ratio of 1.27.

In the case of AGAACATCGA, the switch fluorescence ratio is reported as 0.975.

TTACTTTTGG gave a switch fluorescence ratio of 0.992.

For CCATACAGTG, the switch fluorescence ratio was 1.09.

Work on TCGGGGTACT yielded a switch fluorescence ratio of 1.09.

CTGCTATGGC was tested, and the switch fluorescence ratio was 1.07.

Sequence CCAAGCATGT has a switch fluorescence ratio of 2.07.

TGGATCCCGG gave a switch fluorescence ratio of 1.02.

For TTATTGATCG, the switch fluorescence ratio was 0.976.

Work on TGGGTATCAC yielded a switch fluorescence ratio of 0.999.

TGGGAAAA gave a switch fluorescence ratio of 1.02.

With CACTCGTTTA the switch fluorescence ratio was 0.976.

Work on TTTTGCCT yielded a switch fluorescence ratio of 1.01.

For AAGAATCTAG, the switch fluorescence ratio was 1.04.

Work on TGGAGGGGTC yielded a switch fluorescence ratio of 1.02.

With TAGCTGTGTC the switch fluorescence ratio was 0.999.

In the case of GCCCCCCAGT, the switch fluorescence ratio is reported as 3.64.

GAGTATCATT was tested, and the switch fluorescence ratio was 1.

With GTTTATGGAT the switch fluorescence ratio was 1.02.

Work on CAGTGATCGT yielded a switch fluorescence ratio of 0.969.

Work on TTTTTCATG yielded a switch fluorescence ratio of 1.01.

Sequence GCGTGGCGCC has a switch fluorescence ratio of 1.01.

In the case of TATATGATTT, the switch fluorescence ratio is reported as 1.03.

TTGAAAGTGC was tested, and the switch fluorescence ratio was 1.01.

TCTATGGCTC was tested, and the switch fluorescence ratio was 0.945.

Sequence TGGATTCGAG has a switch fluorescence ratio of 0.978.

In the case of CAATGCGGAA, the switch fluorescence ratio is reported as 1.04.

Sequence GGTGGACATC has a switch fluorescence ratio of 0.968.

TGGATTGTCG gave a switch fluorescence ratio of 1.11.

With GACACACGTT the switch fluorescence ratio was 1.04.

With AAGGCTAGG the switch fluorescence ratio was 0.982.

CTTGGGTGTA was tested, and the switch fluorescence ratio was 0.966.

With ACATGTGCTG the switch fluorescence ratio was 1.07.

Work on CGTAGATGCT yielded a switch fluorescence ratio of 1.03.

AGGTTGTCTT was tested, and the switch fluorescence ratio was 0.979.

GGTATACGTG showed a switch fluorescence ratio of 0.947.

TCCTGCTTAG gave a switch fluorescence ratio of 1.05.

CTTCGTGTTA was tested, and the switch fluorescence ratio was 1.04.

For CCACTCCTGA, the switch fluorescence ratio was 0.997.

CAGTTGGGCG was tested, and the switch fluorescence ratio was 0.908.

CATTTCGGGA gave a switch fluorescence ratio of 0.985.

GTCATAGTAC showed a switch fluorescence ratio of 1.06.

Work on TATAAGGTAG yielded a switch fluorescence ratio of 0.986.

With GTGGGATGTG the switch fluorescence ratio was 0.977.

ATGCTTACCA showed a switch fluorescence ratio of 1.07.
